# The campaign covered roughly 310,000 compounds. About 11,000 (3.5%) were called active. This list was built around the results that the source calls inconclusive (neither active nor inactive); the mix of calls is not that of the screen. Calls follow the shape of the dose curve; as a rule, active = well fitted inhibition curve with a large enough effect; inconclusive = small, poorly fitted or top-dose-only effect, or effect the other way; inactive = flat fitted curve, though single readings scatter. Potencies of inconclusive entries are left out as doubtful fits.
# Experiment: VP16 counterscreen qHTS for inhibitors of ROR gamma transcriptional activity;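 also: Gal4-VP16 expression switched on by copper sulfate through the metallothionein promoter; nearly all actives have a fitted effect of over 50% in size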
# Details: Drosophila S2 Gal4-VP16 UAS-luciferase, luminescence, 20 h; activity, negative = inhibition: at 53.6 µM (top of the series)
# From the text: NIH Molecular Libraries Probe Production Network [MLPCN]
# NIH Chemical Genomics Center [NCGC]
# Assay Provider: Dan Littman, New York University
# The retinoic acid-related orphan receptor (ROR) gamma is a transcription factor that has a central role in the differentiation of Th17 cells, a subset of T helper cells that secrete the inflammatory cytokines IL-17, IL-17F, and IL-22. Th17 cells have been implicated in graft versus host disease, autoimmune disease and asthma. ROR gamma is induced in naive T helper cells in the presence of TGF-beta combined with IL-6, IL-21, or IL-23, and thereafter directs the expression of the Th17 lineage cytokines. To identify nonspecific inhibitors, a Drosophila Schneider cell line was stably transfected with two vectors: a gene expressing a fusion of the Gal4 DNA binding domain and VP16 transactivation domain under the control of the metallothionine promoter and a Photinus luciferase reporter regulated by the Gal4 binding site enhancer, UAS. […] Small molecule inhibitors that inhibit components common to the RORgt and VP16 assays, such as the Gal4 DNA binding domain or the UAS luciferase reporter, will be active in both assays and thus scored as nonspecific.
# For screening, 600 cells in 4 uL/well were dispensed into white solid 1536-well plates (Grenier) using a solenoid-based dispenser. Following transfer of 23 nL compound or DMSO vehicle by a pin tool, the plates were incubated 1 hr at ambient temperature, and 1 uL/well copper sulfate (700 uM final concentration) was added. The plates were centrifuged 15 s at 1000 RPM and incubated 20 hr at ambient temperature. After addition of 1.5 uL Photinus luciferase detection reagent, the plates were incubated 10 min at ambient temperature and then read by a ViewLux (Perkin Elmer) to detect luminescence.
# % is scaled to controls: 0 for no effect and ±100 for the full control effect; potency is read from the fitted curve at half-maximal effect; tags tell the direction and shape of the fitted curve.
Compound,Potency,"activity, negative = inhibition"
O=C1c2ccccc2NC2CCCCC12 (configuration not stated),"inconclusive [inhibitor, single point]",–
O=C(C1CCN(S(=O)(=O)c2cccc3cccnc23)CC1)N1CCn2c1nc1ccccc12,–,inactive: -4.07%
Cc1cc(N2CCCC2=O)cc(C)c1S(=O)(=O)NCCOc1ccc(C(C)(C)C)cc1,active: 3.16 µM,–
O=C(CNC(=O)c1cccc(Br)c1)N/N=C/c1cc(Br)cc(Br)c1O,active: 12.6 µM,–
O=C(O)c1ccc(N/N=C/c2c(F)cccc2Cl)cc1,active: 0.708 µM,–
Cc1ccc(NC(=O)CSc2ncccc2C(=O)Oc2cccc([N+](=O)[O-])c2)cc1Cl,"inconclusive [inhibitor, single point]",–
O=C(CCCCCCN1C(=O)c2ccccc2C1=O)N1CCC(c2ccccc2)C1 (configuration not stated),"inconclusive [inhibitor, single point]",–
C(=N\Nc1cc(N2CCCCC2)ncn1)/c1ccco1,"inconclusive [inhibitor, single point]",–
CC(C)CN1CCC(=O)N(CCSc2ccccc2)CC1,"inconclusive [inhibitor, full curve, poor fit]",–
S=C(NCC1CCCO1)NC12CC3CC(CC(C3)C1)C2 (configuration not stated),active: 5.01 µM,–
COc1ccccc1-c1c(C)nn2c(N)c(-c3ccccc3)cnc12,–,inactive: 28.2%
O=C(Nc1nnc(C2=COCCO2)o1)c1cccc(F)c1,active: 0.562 µM,–
CCOc1ccc(-c2c(C(=O)N/N=C/c3cccs3)nnn2-c2nonc2N)cc1,active: 6.31 µM,–
CC(C)NC(=O)c1onc(CSc2cccc(Cl)c2)c1C(=O)O,"inconclusive [inhibitor, single point]",–
O=S(=O)(Nc1cccc(-c2cn3cccnc3n2)c1)c1ccc(-c2ccccc2)cc1,"inconclusive [inhibitor, single point]",–
NC(=S)NNC(=O)C12CC3CC(CC(C3)C1)C2,"inconclusive [inhibitor, single point]",–
C/C(=N\N=C(/N)SC1CC(=O)N(c2ccc(Cl)c(Cl)c2)C1=O)c1cccs1 (configuration not stated),"inconclusive [inhibitor, single point]",–
COc1ccc(C(=O)c2ccc(OC)c(Br)c2)cc1Br,"inconclusive [activator, single point]",–
COc1ccc(N2C(=O)c3ccc(C(=O)Nc4ccccc4OC)cc3C2=O)cc1,"inconclusive [inhibitor, partial curve]",–
O=C1C=CC(=O)N1N(c1ccccc1)c1ccccc1,"inconclusive [inhibitor, partial curve, poor fit]",–
CC(/C=N/NC(=O)c1ccccc1F)=C\c1ccccc1,–,inactive: -11.4%
C[C@H](NC(=O)c1[nH]cnc1C(=O)Nc1ccc(CNC(=O)OC(C)(C)C)cc1)C(=O)OC(C)(C)C,"inconclusive [inhibitor, single point]",–
CCOC(=O)[C@@H]1[C@H]2COc3ccccc3[C@H]2N2C(=O)N(c3ccc(Cl)cc3)C(=O)[C@@]12C,–,inactive: -1.79%
Cc1ccc(C(=O)N2c3ccccc3NC(=O)C2C)cc1 (configuration not stated),–,inactive: 10.3%

Compound,Potency,"activity, negative = inhibition"
COc1ccc(-c2nc3ccccn3c2Cl)cc1,"inconclusive [inhibitor, single point]",–
CS(=O)(=O)c1nc(-c2ccccc2)cc(-c2ccccc2)c1C#N,"inconclusive [inhibitor, partial curve]",–
Cc1noc(C)c1-c1cncnc1N1CCN(C)CC1,–,inactive: -6.38%
Cc1c(C(O)CN2CCN(Cc3ccc4c(c3)OCO4)CC2)c2ccccc2n1C (configuration not stated),"inconclusive [inhibitor, single point]",–
O=C(CCC(=O)OCC(=O)c1ccc(-c2ccccc2)cc1)Nc1cccc(Cl)c1,active: 12.6 µM,–
C=CCNc1ncnc2c1[nH]c1ccc(Cl)cc12,"inconclusive [inhibitor, single point]",–
Cc1ccnc(NC(=O)C2CCN(S(=O)(=O)c3c(C)c(C)cc(C)c3C)CC2)c1,"inconclusive [inhibitor, partial curve]",–
CSc1ccc(S(=O)(=O)Nc2ccc3c(c2)OCCO3)cc1,"inconclusive [inhibitor, single point]",–
COc1cccc(-c2csc(N3CCN(Cc4ccccc4)CC3)n2)c1,"inconclusive [inhibitor, single point]",–
COc1cc(NC(=S)N2CCN(C/C=C/c3ccccc3)CC2)cc(OC)c1,"inconclusive [inhibitor, single point]",–
CCOc1c(OC)ccc2c3c(c(=O)oc12)CCCC3,"inconclusive [inhibitor, single point]",–
Cc1nn(C)c(C)c1NS(=O)(=O)c1ccc(N2CCCC2=O)cc1,"inconclusive [inhibitor, single point]",–
CCNC(=S)NNC(=O)c1cc(-c2cccnc2)nc2ccccc12,"inconclusive [inhibitor, single point]",–
O=C(CN1CCN(S(=O)(=O)c2ccc(F)cc2)CC1)c1ccc(O)c(O)c1,–,inactive: 4.5%
CCCCN(Cc1cc2cc(OC)ccc2[nH]c1=O)S(=O)(=O)c1ccc(C)cc1,"inconclusive [inhibitor, single point]",–
CC[C@H](C)[C@@H](NC(=O)O[C@@H]1Cc2cc(Br)ccc2O[C@H]1c1cccc(OC)c1)C(=O)OC,–,inactive: -12.2%
Cc1ccc(-c2nn3c(-c4ccco4)nnc3c3ccccc23)cc1S(=O)(=O)NCC1CCCO1 (configuration not stated),–,inactive: -26.4%
COc1cc(OC)cc(C(=O)NC(=S)N2CCN(c3ccc(C(F)(F)F)cc3[N+](=O)[O-])CC2)c1,"inconclusive [inhibitor, single point]",–
COc1cccc(CN2CCNC(=O)C2CC(=O)NC2CCCCCCC2)c1 (configuration not stated),"inconclusive [inhibitor, single point]",–
COc1ccc2c(C)nc(Nc3nc(C)cc(C)n3)nc2c1,active: 1.26 µM,–
CC(=O)c1cccc(NC(=O)C(=O)Nc2cccc3ccccc23)c1,"inconclusive [inhibitor, partial curve]",–
CCN1CCN(Cc2ccc(NC(=O)c3cc(NC(=O)c4cncc(-c5cccs5)c4)cc(OC)c3)cc2C(F)(F)F)CC1,"inconclusive [inhibitor, single point]",–
CCCCOc1ccc(NC(=S)Nc2cc(C)nc(SCCCC)n2)cc1,active: 1 µM,–
CC(C)(C)c1ccc(OCCn2nc(C(=O)O)c3ccccc3c2=O)cc1,"inconclusive [inhibitor, single point]",–

Compound,Potency,"activity, negative = inhibition"
Cc1ccc(C2C(C#N)=C(N)SC(N)=C2C#N)c(C)c1,"inconclusive [inhibitor, single point]",–
CCCCC(=O)Nc1nnc(/C=C/c2ccc(OC)cc2)s1,–,inactive: -13.2%
O=C(CN1CCCC1)N1CCCc2c1c(=O)oc1ccc(OCc3ccccc3)cc21,"inconclusive [inhibitor, single point]",–
CCOc1cc(C(=O)O/N=C(\N)c2ccc([N+](=O)[O-])cc2)cc(OCC)c1OCC,"inconclusive [inhibitor, single point]",–
CCn1c(CSCc2ccc(Cl)cc2)n[nH]c1=S,active: 7.08 µM,–
C/C(=N\NC(=O)c1ccc(Cl)cc1)c1ccc(Br)s1,active: 1.12 µM,–
Oc1ccc(/C=N/Nc2ccc(C(F)(F)F)cn2)cc1O,"inconclusive [inhibitor, single point]",–
CC(C)C1S/C(=N/N=C/c2cccs2)NC1=O (configuration not stated),active: 0.891 µM,–
CC(C)c1c(O)ccc2c1CCC1[C@@](C)(C=O)CCC[C@@]21C (some centres not stated),"inconclusive [inhibitor, single point]",–
CCSc1nnc(-c2ccccc2N=Cc2c(C)[nH]n(-c3ccccc3)c2=O)c(=O)[nH]1,"inconclusive [inhibitor, single point]",–
CN(C)c1nc(NC2CCC(NC(=O)c3ccc(F)c(F)c3)CC2)nc2ccccc12 (configuration not stated),"inconclusive [inhibitor, single point]",–
CCCSc1ccc2nc(-c3ccccc3)cn2c1,active: 6.31 µM,–
O=C(CCc1nnc(CCC2CCCCC2)o1)NCc1ccon1,"inconclusive [inhibitor, partial curve]",–
COc1cc(C(=O)N(C)CCOc2ccc(C)cc2)ccc1OC1CCN(C(C)=O)CC1,–,inactive: 9.76%
Cc1ccc(C2OCC3(CO)COC(c4ccc(C)cc4)N23)cc1 (configuration not stated),"inconclusive [inhibitor, single point]",–
C/C(=N\Nc1nc(C(=O)O)cs1)c1ccccc1,active: 5.01 µM,–
Cc1nc2c(C)cccc2cc1C(=O)N/N=C/c1cccnc1,–,inactive: 3.1%
Cc1ccc(OCc2nnc(SC3CCc4ccccc4C3=O)n2C)cc1 (configuration not stated),"inconclusive [inhibitor, single point]",–
CC(=O)c1ccc(NC(=S)NC(C)CCc2ccccc2)cc1 (configuration not stated),active: 20 µM,–
CN1CCN(c2nc3c(c(=O)n(C)c(=O)n3C)n2Cc2cccc3ccccc23)CC1,–,inactive: 2.77%
CC(C)c1ccc(NC(=O)C2=NNC(=O)CC2)cc1,"inconclusive [activator, full curve, poor fit]",–
O=C1CCCc2[nH]c(-c3ccccc3)nc21,–,inactive: -5.11%
COc1ccc(O)c(/C=N/NC(=S)Nc2cccc(S(=O)(=O)N(C)C)c2)c1,"inconclusive [inhibitor, partial curve]",–
O=C(Nc1cccc(-c2nnc(-c3ccccc3)o2)c1)C1CCCCC1,"inconclusive [inhibitor, partial curve, poor fit]",–
